Measured values taken from the BET-seq Pho4 binding data (Le et al. 2018).
The list shows a part of the results. The energies were worked out here from pooled read counts, against the library average; single values are noisy.

Target: T1, Pho4 (S. cerevisiae) (UniProt P07270)
T1 sequence: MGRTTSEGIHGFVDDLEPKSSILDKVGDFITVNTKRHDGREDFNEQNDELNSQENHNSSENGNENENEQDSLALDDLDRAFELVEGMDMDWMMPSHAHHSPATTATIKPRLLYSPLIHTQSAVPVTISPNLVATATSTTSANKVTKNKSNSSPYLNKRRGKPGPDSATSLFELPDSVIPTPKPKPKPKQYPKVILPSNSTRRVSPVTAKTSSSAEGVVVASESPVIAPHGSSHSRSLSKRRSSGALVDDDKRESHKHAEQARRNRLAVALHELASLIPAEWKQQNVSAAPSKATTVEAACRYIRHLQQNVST
Assay: relative binding free energy (BET-seq); higher = weaker binding
Conditions: reference: library average

Sequence | relative binding free energy [kcal/mol]
GGCAGCACGTGAGTTT | 0.18
AACTGCACGTGGATGG | -0.04
GGTTTCACGTGGGGAT | 0.26
TTTGACACGTGGAGTG | 0.03
TGATCCACGTGGGGTT | -0.03
CTTATCACGTGTGGTC | 0.35
CGGGACACGTGGTTGT | 0.02
TGTGTCACGTGCAATG | -0.07
TTAGCCACGTGGGCGG | -0.34
TTCGTCACGTGGGAAT | 0.15
TGGGGCACGTGAGGAC | 0.09
TTAAGCACGTGTGATA | -0.01
AGTTACACGTGCAGTT | 0.03
GAAAGCACGTGGTAGT | -0.06
TTGCGCACGTGTCTGG | -0.09
TGCGGCACGTGTAGTG | -0.02
TTACGCACGTGTTATT | -0.1
GTTTTCACGTGGGTCA | 0.29
ATTTGCACGTGGGTTG | -0.02
GAGTGCACGTGTAGAA | 0.1
CATATCACGTGATTGG | 0.12
ATAGTCACGTGATTGA | 0.09
CGCATCACGTGGTGTG | -0.01
TAGTTCACGTGTAAGC | 0.38
TCCAACACGTGGGTGG | 0

Sequence | relative binding free energy [kcal/mol]
TACTTCACGTGTGGCG | 0.29
TAAAGCACGTGTTTTT | -0.03
TTTCGCACGTGTAGTC | 0.22
CATGGCACGTGGGGTG | -0.25
ATTGGCACGTGTGAGC | -0.06
TGATACACGTGTTGTG | 0.11
AAAGTCACGTGGCGGG | 0.1
TGTGGCACGTGGAGTC | -0.03
TGGGGCACGTGAGCGT | 0.04
GATAGCACGTGTTGTT | 0.07
GTTCTCACGTGTATTG | 0.26
CTCGGCACGTGAGGTT | 0.13
GTTGACACGTGGGGAT | -0.06
TGATACACGTGGGGAT | 0.05
GCGTTCACGTGTCCGG | 0.39
GTTGGCACGTGCGGGG | -0.04
CAAGGCACGTGGGGTC | -0.14
AGTTGCACGTGTGCAT | -0.03
TGTTACACGTGTAGTG | 0.17
TGCGGCACGTGTTGCT | -0.02
CGTGACACGTGCGGGG | -0.18
GTGGGCACGTGTGTCT | -0.05
GGTTGCACGTGGGGTT | -0.01
AATGGCACGTGCATGT | -0.18
TGTGTCACGTGATGAA | 0.24

Sequence | relative binding free energy [kcal/mol]
CCGTACACGTGGTGGG | -0.05
GTTAGCACGTGCCGGT | 0.08
ATGCGCACGTGGGTAA | -0.11
CTGTGCACGTGGTGAT | -0.1
TTTTGCACGTGATCAT | -0.09
CGGGGCACGTGGATTG | 0
TGAGGCACGTGTGCAG | -0.11
CTGTGCACGTGTTGGG | 0.03
AGTCGCACGTGTGTCG | -0.06
GTAGACACGTGACGGG | 0.21
ATTTGCACGTGTAAAG | 0.06
AGGTGCACGTGAGGTT | 0.25
GTCGGCACGTGATGTG | 0.19
CGGTGCACGTGCTGTA | -0.06
TATGGCACGTGACAGG | -0.12
CGCTTCACGTGGTAGG | 0.32
GTAGTCACGTGGAATA | 0.23
CGAGGCACGTGGGTCT | -0.09
TTTTTCACGTGGTCTG | 0.27
TTTTTCACGTGCAGCT | 0.13
GGTTACACGTGCTGTA | 0
TGCGGCACGTGGGAAT | -0.18
CATGGCACGTGTTTTT | -0.03
CTTGTCACGTGTCTTT | 0.02
AAATGCACGTGTTCGG | -0.05

Sequence | relative binding free energy [kcal/mol]
GATTACACGTGTGGGT | 0.25
TGTGCCACGTGTGGTG | -0.11
AGTGGCACGTGAGGAG | 0.16
TGGGTCACGTGTTCTC | 0.09
GTAAGCACGTGGTAGA | -0.05
ACGTGCACGTGGACGG | 0
GATAACACGTGGGGTT | -0.02
GGGTACACGTGTCTTA | 0.15
TATCGCACGTGGAAGT | 0.06
TTGTGCACGTGGACTG | -0.03
TCTGTCACGTGTAAGG | 0.25
AACGGCACGTGGGGTC | -0.25
GGTAACACGTGAACGT | 0.39
GTCTGCACGTGGGCTG | -0.02
TAGGACACGTGGAAAG | 0.19
GTTATCACGTGACGTA | 0.26
AGGGACACGTGCTTTG | -0.15
ATTATCACGTGGGGAA | 0.02
AGTTACACGTGGGATT | 0.09
GATCGCACGTGGCTGG | 0.04
TGTGTCACGTGGGCTC | -0.18
GTTATCACGTGGATGC | 0.04
CTGGGCACGTGTTGTT | -0.11
AGCGGCACGTGGTTTT | -0.04
TGTTACACGTGCTGGA | 0.15

Sequence | relative binding free energy [kcal/mol]
TTGATCACGTGTCGGA | 0.29
GGGGTCACGTGATATA | 0.31
TGACACACGTGTTTTG | 0.05
TGGTCCACGTGTCAGG | 0.12
GATATCACGTGCAGGT | 0.08
CGTGACACGTGTGGCT | 0.14
GGTTGCACGTGCGTGC | -0.07
TGGGCCACGTGGTTTA | -0.1
GGGGACACGTGGTTTA | -0.05
CTCGGCACGTGAAGGG | 0.17
AGATGCACGTGGTATA | -0.12
TGGCGCACGTGAAAGG | 0.1
AAGTGCACGTGTAAAG | 0.09
ACTCTCACGTGTGGGT | 0.25
CTTGGCACGTGCGTTA | -0.23
CTTGGCACGTGTATAA | -0.04
CGGTTCACGTGTGCGG | 0.23
TCAGGCACGTGTTGGC | -0.09
GTGGTCACGTGACAGG | 0.18
AGGATCACGTGTTTTT | 0.14
CGTTACACGTGTGTGG | 0.02
GTAATCACGTGTTGGC | 0.19
TATATCACGTGTTAAA | 0.08
GGAATCACGTGGTGCT | 0.04
GACGCCACGTGGGGGT | -0.28

Sequence | relative binding free energy [kcal/mol]
ATTTTCACGTGTGTAA | 0.24
TGAGGCACGTGTAACT | 0.07
TGAGTCACGTGTGGGT | 0.23
TTCGGCACGTGCGATT | 0.03
TTTGTCACGTGCGAGG | 0.14
TATTGCACGTGTCATT | -0.15
TTAAGCACGTGGTTCA | -0.15
GTATGCACGTGTAATG | 0.13
GGCGGCACGTGTGTCG | -0.06
CATGTCACGTGCGGTT | 0.06
TCTAGCACGTGAGGGT | 0.01
ATTTCCACGTGTGCGT | 0.16
TGGTACACGTGTAAAG | 0.31
GTGATCACGTGCTAGT | 0.01
CATGGCACGTGTGAAT | 0
ACCTTCACGTGTGGGT | 0.21
GTAGGCACGTGGGCGA | -0.25
CATGGCACGTGTTCGG | -0.07
TATAGCACGTGTTTGG | -0.18
ATTTCCACGTGGGGGG | -0.11
CGGTCCACGTGGTGTT | -0.01
